The supplement of paper PMC3334620
Whole data set: some 33,000 sequences, median “E-score (-0.5 to 0.5)” near -0.054, cut for the highest 2% near 0.35. The list shows a part of the results.

These sequences were tested against T1, Stb5 (UniProt P38699) (assay: PBM E-score (8-mer binding enrichment) (E-score (-0.5 to 0.5)); higher = stronger / more preferred TF binding; most listed sequences are background and not binding sites). Conditions: protein concentration: 200 nM; construct: GST-full length.
T1 sequence: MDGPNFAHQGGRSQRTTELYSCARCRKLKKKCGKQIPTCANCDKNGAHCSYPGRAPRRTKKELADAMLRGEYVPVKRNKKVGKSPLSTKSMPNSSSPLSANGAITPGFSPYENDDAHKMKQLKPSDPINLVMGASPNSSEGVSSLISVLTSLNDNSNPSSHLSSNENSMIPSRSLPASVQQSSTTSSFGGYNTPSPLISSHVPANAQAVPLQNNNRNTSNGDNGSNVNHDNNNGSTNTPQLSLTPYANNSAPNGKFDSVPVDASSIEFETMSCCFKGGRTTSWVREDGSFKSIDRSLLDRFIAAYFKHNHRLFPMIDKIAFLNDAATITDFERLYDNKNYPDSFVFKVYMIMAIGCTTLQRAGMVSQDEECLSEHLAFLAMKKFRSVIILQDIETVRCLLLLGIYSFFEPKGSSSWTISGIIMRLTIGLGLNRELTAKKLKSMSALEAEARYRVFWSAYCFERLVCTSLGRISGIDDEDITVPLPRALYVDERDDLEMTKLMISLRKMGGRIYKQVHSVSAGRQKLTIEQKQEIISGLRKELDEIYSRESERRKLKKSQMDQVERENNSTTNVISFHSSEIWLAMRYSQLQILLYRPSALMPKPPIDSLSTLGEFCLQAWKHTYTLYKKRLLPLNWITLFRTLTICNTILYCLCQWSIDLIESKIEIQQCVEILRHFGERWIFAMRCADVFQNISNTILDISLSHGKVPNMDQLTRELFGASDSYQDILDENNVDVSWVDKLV
In short: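 Universal all-10-mer Agilent arrays, double-stranded by primer extension on fresh or once-stripped slides, were probed with about 100-200 nM GST-tagged yeast transcription factors made by PURExpress. Fluorescent anti-GST detected bound protein, and masliner normalised the scans. E-scores from the Universal PBM Analysis Suite were given to each ungapped eight-base word pooled with its reverse complement.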

Row | Sequence | PBM E-score
1 | ACTTTTGG | -0.0525
2 | AAACCGTG | -0.0899
3 | CCGTTACA | 0.185
4 | CCTGCAGC | -0.251
5 | GCCGCATA | 0.279
6 | TATCCATA | -0.253
7 | TGCCAACA | -0.198
8 | AAATAGAT | 0.104
9 | AGTTAGTG | -0.201
10 | TATCGGGA | 0.275
11 | ATTGACCC | 0.0691
12 | ACTCAACG | 0.0371
13 | ACGGCGCT | 0.338
14 | ACTTAAGG | 0.114
15 | ATAGGTGG | -0.204
16 | CAAATCAG | -0.234
17 | GGGGCCCA | -0.148
18 | TACGACGA | -0.229
19 | GGCTCATA | -0.0497
20 | CTGATAGC | 0.0355
21 | CATTCCGA | 0.0747
22 | AGCACCTC | -0.163
23 | CCTAAATA | -0.027
24 | ACCCCAAA | -0.179
25 | ATATTTCA | -0.0823

Row | Sequence | PBM E-score
26 | AACAAGGG | -0.0706
27 | AAACAAAC | -0.153
28 | CTCCCAAA | -0.237
29 | AAGATCTG | -0.223
30 | AAAATGGT | 0.0967
31 | CGCATCAA | 0.126
32 | GTTGTCAA | 0.0212
33 | GCACATGA | -0.218
34 | CCCGGTCA | 0.237
35 | AGAAAACC | 0.0845
36 | GGAATACC | 0.24
37 | GCTATTAA | 0.104
38 | TCACTTAA | -0.0332
39 | AAGCCCCT | 0.0404
40 | ATATTGAC | -0.0193
41 | GTAATACA | -0.0433
42 | ACCATTAG | 0.172
43 | CGACGTTA | 0.144
44 | ACTACGGC | 0.0314
45 | GACGCGGC | 0.145
46 | CAAGCGGC | 0.379
47 | ACTTGACA | -0.1
48 | CTCTTTAC | 0.088
49 | TTGACCAA | -0.122
50 | ACATGGCC | -0.0187

Row | Sequence | PBM E-score
51 | ACAACCTA | -0.122
52 | CGTAACAA | 0.0955
53 | ACGAGTCG | -0.197
54 | CGAAGGAG | -0.0669
55 | ATAAACTA | 0.0863
56 | ACGTCCGC | 0.367
57 | ACTCGAAA | -0.0845
58 | TACATCTA | -0.137
59 | GAGAGACC | 0.0815
60 | ACAACCGT | -0.00109
61 | GTCTCTGA | -0.076
62 | CGCTTTAA | 0.0868
63 | AATGTCAC | 0.0684
64 | ATTCTGTC | -0.179
65 | ACATAGCT | -0.185
66 | GATATAAC | 0.122
67 | GTGGGGGA | -0.2
68 | CTTCCCAA | -0.208
69 | CGATTGGC | -0.0397
70 | ATCACCCG | 0.118
71 | CTCCAGCC | -0.15
72 | CTCGTCCC | -0.0253
73 | ATTATTTG | 0.0339
74 | ACCTTTCG | 0.0279
75 | ATATCTCA | 0.0336

Row | Sequence | PBM E-score
76 | GAGGCTGA | -0.201
77 | GGCGAGTA | -0.101
78 | GTGACTAA | -0.046
79 | GCCTAAGA | -0.17
80 | GAGTCCGA | 0.286
81 | ACCCACGA | 0.00701
82 | TACGAGTA | -0.0315
83 | TCTCCTCA | -0.149
84 | AAGTAAGC | -0.11
85 | CCGAGGTC | 0.145
86 | ATCCTTAA | -0.156
87 | GGAGTCTA | 0.0281
88 | AAGAGTGC | -0.0116
89 | ACAAGTAT | -0.0785
90 | AGTGGTAT | -0.0708
91 | AATCGCCA | -0.0689
92 | TCCCGAAA | 0.171
93 | TCAAGGAA | -0.239
94 | AGACTTAC | -0.161
95 | ACCACCCA | -0.217
96 | ATGCTCCG | 0.165
97 | AATTTGGT | -0.146
98 | ACAGGTAA | -0.118
99 | AATGGATG | -0.343
100 | AATGTTTC | -0.122

Row | Sequence | PBM E-score
101 | ACACAACA | -0.0623
102 | GTTCTGGA | -0.175
103 | GCACATAA | 0.12
104 | CCCCTTCG | -0.0277
105 | CAGCGCCG | 0.299
106 | CAGCAGAC | -0.0728
107 | CGGAGAAA | 0.35
108 | AACCTGCC | -0.15
109 | CCAGGTAC | -0.212
110 | ACGTATCA | -0.0805
111 | CCGTGTCC | 0.11
112 | AACTAATA | 0.133
113 | CCAGGTAA | -0.113
114 | TAGAGTAA | -0.0065
115 | GTTGGCAA | -0.189
116 | AAGGTTCG | -0.0237
117 | AGATCAAG | -0.211
118 | GCCTAACC | -0.0372
119 | TATGTGAA | -0.344
120 | CAAAGTCC | 0.29
121 | CCTTAAGG | -0.0301
122 | CGCATACG | -0.0759
123 | ATCAGTCC | 0.158
124 | GGGTTGAA | -0.0859
125 | ACCTGCGT | -0.0401

Row | Sequence | PBM E-score
126 | CGCTAGGA | -0.0204
127 | GATGGGGA | -0.116
128 | GAAGTAGC | -0.034
129 | AACCACAT | -0.134
130 | GTGGCCAA | -0.271
131 | GGCCTTTA | 0.201
132 | CAAAGCCG | 0.0133
133 | GGGAATCA | -0.0836
134 | AAGGGACG | -0.0296
135 | ACAAAAGT | -0.144
136 | TAAAGGCA | -0.241
137 | CGAGTAGA | -0.163
138 | ACAAAATC | -0.0314
139 | ACTTGATG | -0.101
140 | CCGAAGGA | 0.074
141 | CGGCACTC | 0.217
142 | ATTCAGAA | -0.159
143 | AGAGCTAC | -0.219
144 | CACGATCC | -0.0649
145 | AGGGGCCC | -0.0388
146 | GCACAAGC | -0.151
147 | CTAATTAG | -0.0467
148 | TGATAGCA | -0.00064
149 | CTGTCCGC | 0.129
150 | ATGTAAAT | -0.126

Row | Sequence | PBM E-score
151 | AAATGATA | -0.0108
152 | GACAACCC | -0.0983
153 | GACTTTCA | 0.083
154 | AGCGGATG | 0.163
155 | ATACACGG | 0.0218
156 | TAGGTTAA | 0.0883
157 | CAACCGCC | 0.137
158 | GGGACAAA | 0.13
159 | CTCCAGAC | -0.272
160 | CGGTTCCC | 0.0995
161 | CTTATGTC | 0.0195
162 | TCCGTTAA | 0.254
163 | AAGCGCTT | 0.0365
164 | CCGAGACA | 0.0635
165 | CCGTATAC | 0.083
166 | CATGGCCC | -0.0254
167 | ATCCGGTG | 0.34
168 | ACTATTCA | -0.084
169 | CGGTGCAC | 0.0634
170 | CTATAGCC | 0.15
171 | GCAAGGTA | -0.158
172 | GGATACAA | 0.0748
173 | CCTATGAA | -0.0593
174 | CAGCCCCA | -0.36
175 | AGACATTA | -0.00865

Row | Sequence | PBM E-score
176 | GAGTCTCA | -0.0838
177 | TGGGGACA | -0.208
178 | CAAAGGCG | -0.0234
179 | ATTGTGAA | -0.177
180 | CGGACCGA | 0.4
181 | CCTTAAAC | 0.153
182 | ACCTCGAG | -0.0292
183 | CACCGCGG | 0.419
184 | ACCTCACA | -0.181
185 | CATTATTA | 0.0171
186 | CCATTAGG | -0.24
187 | GTCGTTGA | -0.0459
188 | AACATTCA | -0.139
189 | GGCGGCCC | 0.297
190 | CGAACGAG | -0.1
191 | CGAGAGAG | 0.0636
192 | AATACGAC | -0.0666
193 | AATCTGGA | -0.0549
194 | AGCGGCTC | 0.204
195 | CCGGATAC | 0.15
196 | AATACATC | 0.226
197 | GGCCATAA | 0.156
198 | ACTTACTA | -0.149
199 | ATACCCCA | -0.0468
200 | CTTTCTAA | -0.00241

Row | Sequence | PBM E-score
201 | AAATCCCT | -0.0732
202 | CAAGATCA | -0.133
203 | ACCCCACC | 0.182
204 | AGGATCAA | -0.126
205 | ATAATCTG | -0.144
206 | CGACTCAG | -0.137
207 | AGTCGCGA | -0.0369
208 | TAGTGTGA | -0.284
209 | AGCTATCC | -0.0553
210 | CTACACGC | -0.212
211 | CTGTACTA | -0.082
212 | ACAAATGG | -0.217
213 | AAGTTACA | -0.203
214 | CACATGGC | -0.022
215 | GATTAAAA | 0.0759
216 | AGAAGACC | 0.0271
217 | AGGTTCAT | -0.193
218 | CGTAACTC | 0.073
219 | CCGCGTGC | 0.193
